Consider 45 compounds from article PMC4336329 (PLoS ONE, 2015).

Hit rate of the full screen: of about 310,000 compounds, about 2,200 (0.71%) showed an effect of 50% or more. The effect is printed as a negative number. Some of the results follow.

This assay deals with human ether-à-go-go-related gene (hERG) potassium channel (human, UniProt Q12809). The experiment in a line: primary screen, population patch clamp on CHO cells stably expressing hERG.
human ether-à-go-go-related gene (hERG) potassium channel, sequence (Q12809 whole entry, looked up): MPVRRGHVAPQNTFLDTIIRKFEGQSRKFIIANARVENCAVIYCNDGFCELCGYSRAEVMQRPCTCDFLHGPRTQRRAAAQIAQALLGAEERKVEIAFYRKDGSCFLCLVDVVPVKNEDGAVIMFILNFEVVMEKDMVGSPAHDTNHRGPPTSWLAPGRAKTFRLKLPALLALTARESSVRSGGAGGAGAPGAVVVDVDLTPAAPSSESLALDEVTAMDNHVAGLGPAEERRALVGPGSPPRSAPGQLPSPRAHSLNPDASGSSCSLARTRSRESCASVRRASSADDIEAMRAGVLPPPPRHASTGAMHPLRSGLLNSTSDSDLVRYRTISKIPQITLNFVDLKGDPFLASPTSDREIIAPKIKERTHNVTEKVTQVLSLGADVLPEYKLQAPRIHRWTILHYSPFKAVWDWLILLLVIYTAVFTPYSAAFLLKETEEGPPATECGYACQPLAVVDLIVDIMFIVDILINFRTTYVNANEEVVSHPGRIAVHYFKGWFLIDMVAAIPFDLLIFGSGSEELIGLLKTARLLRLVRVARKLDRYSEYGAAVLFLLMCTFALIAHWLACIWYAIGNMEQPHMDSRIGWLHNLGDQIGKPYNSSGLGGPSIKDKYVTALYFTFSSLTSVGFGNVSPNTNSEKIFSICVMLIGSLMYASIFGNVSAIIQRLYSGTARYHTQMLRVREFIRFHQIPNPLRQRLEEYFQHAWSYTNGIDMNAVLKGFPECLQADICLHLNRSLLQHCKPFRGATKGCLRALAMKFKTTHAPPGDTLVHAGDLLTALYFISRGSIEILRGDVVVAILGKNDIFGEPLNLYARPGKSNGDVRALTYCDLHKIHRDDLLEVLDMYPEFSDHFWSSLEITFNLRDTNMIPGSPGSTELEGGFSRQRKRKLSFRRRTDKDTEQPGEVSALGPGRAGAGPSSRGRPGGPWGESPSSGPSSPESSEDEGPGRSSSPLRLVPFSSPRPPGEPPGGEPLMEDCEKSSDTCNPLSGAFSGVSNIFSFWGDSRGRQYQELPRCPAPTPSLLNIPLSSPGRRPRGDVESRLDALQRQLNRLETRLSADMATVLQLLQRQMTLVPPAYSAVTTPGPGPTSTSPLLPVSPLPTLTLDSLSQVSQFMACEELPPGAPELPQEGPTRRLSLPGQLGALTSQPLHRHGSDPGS
Take `Cc1ccc(S(=O)(=O)N2CCOCC2)cc1NC(=O)COC(=O)c1cc[n+]([O-])cc1`: the “hERG current change (%, negative = inhibition) at 1uM” value is on record as 10%. As for `COc1cc(N=C2C(=O)N3CCCc4cccc2c43)cc(OC)c1`, the figure is 13.9%; as for `COC(=O)C1=C(C)OC(N)=C(C#N)C1c1cc(OC)ccc1OC` (stereo not drawn), -3.2%. Under `Clc1ccccc1OCCN1CCCCC1` stands 2.28%; under `Cc1ccc(-c2csc(N3CCN(CCCn4c(C(F)(F)F)nc5ccccc54)CC3)n2)cc1`, 0.274%. As to `O=C(Nc1cccc(S(=O)(=O)N2CCOCC2)c1)C1CC(=O)N(c2ccc3c(c2)OCCO3)C1` (stereo not drawn), the “hERG current change (%, negative = inhibition) at 1uM” value is on record as 15%. Under `O=C(Nc1ccc(N2CCN(c3ccccc3)CC2)c(F)c1)C1CC1` stands 6.68%. Under `Cc1cc(C(=O)CCl)c(C)n1CCc1ccc(F)cc1` stands 20%. Under `Cc1nc2nc(-c3cccs3)cn2nc1C` stands 12.6%.

As to `O=C(Cc1cc(=O)[nH]c(=O)[nH]1)N1CCN(C(=O)c2ccco2)CC1`, the “hERG current change (%, negative = inhibition) at 1uM” value came out at 16.4%.

In the case of `CC(C)(C)N1CC2(c3ccccc3)CN(C(C)(C)C)CC(c3ccccc3)(C1)C2=O`, the “hERG current change (%, negative = inhibition) at 1uM” value is -2.44%. Under `O=C(CN1C(=O)c2ccccc2C1=O)NCC1COc2ccccc2O1` (stereo not drawn) stands 9.94%; under `COc1ccc(C(=O)NCc2oc(-c3ccccc3)cc2C(=O)O)cc1`, 14.2%; under `CC(=O)Nc1ccc(N(C(=O)c2cnccn2)C(C(=O)NC2CCCCC2)c2ccc(O)cc2)cc1` (stereo not drawn), 6.54%. As for `CCOCCCNC(=O)C(NC(=O)c1ccccc1O)c1ccc(C)cc1` (stereo not drawn), the figure is 15.6%; as for `CC(C)N(Cc1ccccc1)C(=O)CCS(=O)(=O)c1ccc2c(c1)oc(=O)n2C`, 8.54%; as for `O=C(Nc1nnc(-c2ccccc2)s1)c1ccccc1O`, -6.22%.

Regarding `O=C(COC(=O)Cc1ccccc1F)Nc1ccc(Cl)cn1`, the “hERG current change (%, negative = inhibition) at 1uM” value turned out to be 11.6%. Turning to `Nc1nonc1C(=O)N/N=C/c1ccc([N+](=O)[O-])o1`, the “hERG current change (%, negative = inhibition) at 1uM” value is 4.4%. Under `Cc1ccc(S(=O)(=O)N(Cc2nccn2C)C(C)C)cc1.Cl` stands 2.63%. Under `Cc1ccc(S(=O)(=O)c2ccccc2)cc1S(=O)(=O)N1CCOCC1` stands 4.58%.

Take `CCNC(=O)Nc1nc2ccccc2s1`: the “hERG current change (%, negative = inhibition) at 1uM” value is listed as 8.72%. As for `COc1ccccc1N1N=C(c2ccc([N+](=O)[O-])cc2)CC1c1ccccc1` (stereo not drawn), the figure is 18.8%.

Take `Cc1ccc2oc(=O)cc(/C=C/c3ccccc3)c2c1`: the “hERG current change (%, negative = inhibition) at 1uM” value is given as -1.69%. Take `N#CC1(NC(=O)COC(=O)CCN=C2NS(=O)(=O)c3ccccc32)CCCCC1`: the “hERG current change (%, negative = inhibition) at 1uM” value is 19.4%. Under `COc1ccccc1C(=O)N/C(=C\c1cn(C)c2ccccc12)C(=O)N1CCCC1` stands 7.3%; under `CCn1ncc(CN2CCN(C(=O)Nc3ccccc3C(=O)OC)CC2)c1C`, 4.62%. With `Cc1nn2c(NCc3cccnc3)c3c(nc2c1-c1ccccc1)CCC3`, the “hERG current change (%, negative = inhibition) at 1uM” value is -25.1%. For `Cc1cc(C(=O)N2CC(C)CC(C)C2)c(C)o1` (stereo not drawn), the “hERG current change (%, negative = inhibition) at 1uM” value worked out at 6.62%. `COc1cccc(CN2CCC(Oc3ccc(C(=O)NCc4ccccn4)cc3)CC2)c1`: the “hERG current change (%, negative = inhibition) at 1uM” value came out at 8.1%. Under `O=C(c1cc(S(=O)(=O)N2CCOCC2)ccc1Cl)N1CCN(c2ccccn2)CC1` stands 14.6%. As for `CCCC(C)NC(=O)Cc1ccc(S(=O)(=O)N2CCOCC2)s1` (stereo not drawn), the figure is 9.67%. As for `CCn1cc(C(=O)NCc2ccc(C)cc2)c(=O)c2cc(S(=O)(=O)N(C)C)ccc21`, the figure is 9.41%; as for `O=C(NN1C(=O)C2C3C=CC(C4CC34)C2C1=O)c1ccccc1Cl` (stereo not drawn), 6.71%. Consider `CNc1oc(Cc2ccccc2)nc1S(=O)(=O)c1ccc(Cl)cc1`, for which the “hERG current change (%, negative = inhibition) at 1uM” value came out at 3.2%. Regarding `CC(=O)Nc1ccc(NC(=O)C(C)OC(=O)c2cccs2)cc1` (stereo not drawn), the “hERG current change (%, negative = inhibition) at 1uM” value stood at 2.86%. Under `CN1CCO/C1=C(\C(Cl)=C(Cl)Cl)[N+](=O)[O-]` stands 13%; under `O=C1CCC(=O)N1c1ccc(S(=O)(=O)N2CCCC2)cc1`, 6.91%; under `COc1cc(C2Nc3cccc4cccc(c34)N2)ccc1O`, 13.4%.

With `Cc1ccc2c(CC(=O)N(CC3CCCO3)c3c(N)n(Cc4ccccc4)c(=O)[nH]c3=O)coc2c1` (stereo not drawn), the “hERG current change (%, negative = inhibition) at 1uM” value is 13.1%.

`CC(=O)Nc1ccc2c(CSc3nnc(-c4cccnc4)n3-c3ccc(C)cc3C)cc(=O)oc2c1`: the “hERG current change (%, negative = inhibition) at 1uM” value is recorded as 7.05%.

Take `Cc1cc(C)c2sc(NNC(=O)C3COc4ccccc4O3)nc2c1` (stereo not drawn): the “hERG current change (%, negative = inhibition) at 1uM” value is recorded as 11%. On to `Cc1ccc2[nH]ccc(=O)c2c1`, for which the “hERG current change (%, negative = inhibition) at 1uM” value came to 10.9%. Consider `CN(CCc1ccccn1)C(=O)CCC1CCCN(Cc2ccccc2OC(F)F)C1` (stereo not drawn), for which the “hERG current change (%, negative = inhibition) at 1uM” value is on record as 11.4%.

Turning to `COc1cccc(-c2ccc3nnc(SCC(=O)Nc4ccc(NC(C)=O)cc4)n3n2)c1`, the “hERG current change (%, negative = inhibition) at 1uM” value turned out to be 10%.
